In PubChem BioAssay (NCATS):
Inconclusive results, whose numbers are uncertain, are shown with a selection of clear calls. For some of these results: A potency beside an inconclusive call is a rough fit, not a confirmed value. Activity calls are given as the source filed them. Unless noted, calls come from the whole dose curve; as a rule, active = well fitted curve in the direction sought with a large enough effect; inconclusive = small, poorly fitted or top-dose-only effect, or another doubt; inactive = no such curve, though single readings can be large; an effect the other way counts as inactive or inconclusive.

Legend:
[1] = Cell Viability - BJ (AID 421; calls by dose curve;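 note: potency is the fitted concentration of half-maximal effect; cells exposed to compound for 40 hours at 37 °C before readout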); conditions: BJ fibroblast viability, qHTS
In short: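 Quantitative HTS: ATP depletion in BJ cells after 40 hr compound exposure in complete culture medium, detected with CellTiter-Glo; AC50 from standard Hill fits.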

[2] = Cell Viability - LYMP2-001 (AID 921); conditions: LYMP2-001 lymphoblastoid cell viability; series mostly up to 92.2 µM;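 note: 0% = DMSO only and full inhibition = tetraoctylammonium bromide control wells; nearly all actives have a fitted effect of over 70% in size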
In short: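 Cellular ATP loss read by luciferase luminescence after 24 h compound exposure at 37 C in complete medium. LYMP2-001 lymphoblastoid cells, 2500/well; qHTS concentration-response data fitted with Hill equation for AC50.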

[3] = MultiTox-Fluor Cytotoxicity Assay - LYMP1-002 - Dead Cells (AID 960); conditions: LYMP1-002 lymphoblastoid cells, dead-cell protease fluorescence; cytotoxicity (dead cells): at 46.1 µM (top of the series); note: potency is the fitted concentration of half-maximal effect; nearly all actives have a fitted effect of over 60% in size
In short: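 Human lymphoblastoid LYMP1-002 cells, 2500/well, treated 16 h at 37 C; dead-cell protease cleavage of bis-AAF-R110 read by fluorescence (485/520); normalized to DMSO and 15 uM tetraoctylammonium bromide; AC50 from Hill fit.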

[4] = MultiTox-Fluor Cytotoxicity Assay - LYMP1-003 - Live Cells (AID 962); conditions: LYMP1-003 lymphoblastoid cells, MultiTox-Fluor live-cell protease fluorescence; series mostly up to 92.2 µM;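 note: 0% = DMSO only and full loss = 92 µM tetraoctylammonium bromide; cytotoxic hits lower the live-cell protease signal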
In short: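 LYMP1-003 lymphoblastoid cells, 2500/well in complete medium, treated 16 h at 37 C; live-cell protease cleavage of GF-AFC read by fluorescence (Ex/Em 405/510) after 60 min reagent; AC50 from Hill fits of concentration-response.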

[5] = Cell Viability - LYMP2-004 (AID 966); conditions: LYMP2-004 lymphoblastoid cell viability, qHTS; series mostly up to 92.2 µM;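 note: plate controls were DMSO only for no effect and tetraoctylammonium bromide control for full effect; nearly all actives have a fitted effect of over 65% in size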
In short: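 Lymphoblastoid LYMP2-004 cells, 2500 per well, were preincubated for 5 hr and then treated with compound for 24 h at 37 C in complete medium. Viability was read as cellular ATP by CellTiter-Glo luminescence, and AC50 values were taken from Hill fits to concentration-response data.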

[6] = Cell Viability - LYMP2-019 (AID 973); conditions: LYMP2-019 lymphoblastoid cell line viability; series mostly up to 92.2 µM;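 note: 0% = DMSO alone and full effect = 92 µM tetraoctylammonium bromide; nearly all actives have a fitted effect of over 55% in size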
In short: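 Human lymphoblastoid LYMP2-019 cells (2500/well) preincubated 5 h at 37 C, then treated 24 h at 37 C in complete medium. Viability by CellTiter-Glo ATP luminescence after 30 min at room temperature; AC50 from Hill fits.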

[7] = molecular target: Bile acid receptor (Homo sapiens) (UniProt Q96RI1); test: qHTS assay for small molecule agonists of farnesoid X receptor signaling (AID 588527; calls by dose curve;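 note: 0% = vehicle basal and 100% = reference agonist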); conditions: HEK293T FXR-UAS-bla, beta-lactamase ratio, 16 h; activation: hits give high values
UniProt Q96RI1, sequence (Q96RI1 whole entry, looked up): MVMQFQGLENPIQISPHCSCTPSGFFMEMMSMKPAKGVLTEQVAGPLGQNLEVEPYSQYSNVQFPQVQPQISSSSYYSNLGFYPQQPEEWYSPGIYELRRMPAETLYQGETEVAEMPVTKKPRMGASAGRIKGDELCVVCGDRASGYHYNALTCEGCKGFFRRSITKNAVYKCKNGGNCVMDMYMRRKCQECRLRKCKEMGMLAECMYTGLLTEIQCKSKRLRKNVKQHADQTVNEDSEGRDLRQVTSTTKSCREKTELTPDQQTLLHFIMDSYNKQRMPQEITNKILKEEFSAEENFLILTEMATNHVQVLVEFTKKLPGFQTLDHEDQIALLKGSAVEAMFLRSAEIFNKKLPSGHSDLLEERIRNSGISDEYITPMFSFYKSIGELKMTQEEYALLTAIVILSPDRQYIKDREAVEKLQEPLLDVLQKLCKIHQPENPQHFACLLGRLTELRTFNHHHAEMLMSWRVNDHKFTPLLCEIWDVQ
In short: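 Quantitative HTS used FXR-UAS-bla HEK293T cells with 16 h compound incubation at 37 C. EC50 values came from concentration-response curves normalized to chenodeoxycholic acid.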

[8] = molecular target: Vitamin D3 receptor (Homo sapiens) (UniProt P11473); test: qHTS assay for small molecule antagonists of vitamin D receptor signaling (AID 588541; calls by dose curve;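 note: receptor activated by calcitriol during compound treatment; % is set by controls: 0 for no effect and ±100 for the full control effect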); conditions: HEK293T VDR-UAS-bla, beta-lactamase ratio, antagonist mode; activity change, negative = inhibition: at 76.7 µM (top of the series)
UniProt P11473, sequence (P11473 whole entry, looked up): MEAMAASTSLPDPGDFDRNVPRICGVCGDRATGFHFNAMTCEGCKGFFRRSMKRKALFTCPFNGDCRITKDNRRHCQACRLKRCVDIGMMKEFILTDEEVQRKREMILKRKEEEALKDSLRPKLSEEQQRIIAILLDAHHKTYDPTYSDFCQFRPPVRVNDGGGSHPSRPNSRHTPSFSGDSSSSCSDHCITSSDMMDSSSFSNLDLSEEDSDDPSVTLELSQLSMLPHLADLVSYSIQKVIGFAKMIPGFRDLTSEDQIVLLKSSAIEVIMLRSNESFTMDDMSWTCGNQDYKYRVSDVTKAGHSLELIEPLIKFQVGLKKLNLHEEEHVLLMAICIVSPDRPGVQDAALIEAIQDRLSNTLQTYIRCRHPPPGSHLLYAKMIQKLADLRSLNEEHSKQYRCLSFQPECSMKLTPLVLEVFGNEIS

[9] = molecular target: Thyroid hormone receptor beta (Homo sapiens) (UniProt P10828); test: qHTS assay for small molecule agonists of thyroid hormone receptor beta signaling (AID 588545; calls by dose curve;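 note: 0% = DMSO only and 100% = 10 nM T3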); conditions: TR-UAS-bla GripTite HEK 293, beta-lactamase ratio, agonist mode, 18 h; activation: at 76.7 µM, percent of T3 response, DMSO as zero
UniProt P10828, sequence (P10828 whole entry, looked up): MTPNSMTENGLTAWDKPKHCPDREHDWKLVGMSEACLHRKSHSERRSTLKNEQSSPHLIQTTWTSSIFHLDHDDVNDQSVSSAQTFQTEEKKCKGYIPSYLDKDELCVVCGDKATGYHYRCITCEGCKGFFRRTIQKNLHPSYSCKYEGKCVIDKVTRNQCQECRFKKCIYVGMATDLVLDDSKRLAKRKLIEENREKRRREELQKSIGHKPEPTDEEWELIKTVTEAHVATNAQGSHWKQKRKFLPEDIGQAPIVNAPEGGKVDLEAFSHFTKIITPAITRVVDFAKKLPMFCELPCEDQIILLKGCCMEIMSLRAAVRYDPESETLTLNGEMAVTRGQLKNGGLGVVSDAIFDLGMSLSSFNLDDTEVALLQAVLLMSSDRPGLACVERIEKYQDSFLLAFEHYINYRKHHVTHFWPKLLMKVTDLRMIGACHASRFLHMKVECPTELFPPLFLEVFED
In short: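 Stimulation of a TR-driven beta-lactamase reporter was quantified in GripTite HEK 293 cells. Compound series ran for 18 hrs; curves were normalized to T3 and DMSO controls and fitted to yield EC50.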

[10] = qHTS assay to identify small molecules that stimulate interleukin-8 (IL-8) secretion (AID 651758; active = well fitted activation curve with a large enough effect in the signal ratio; inconclusive = small, poorly fitted or top-dose-only effect, or effect the other way, or a change in a side signal; the % refers to the signal ratio; note: 0% is about no effect); conditions: HTRF ratio (665/615); activation: at 92.2 µM (top of the series)
In short: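 THP-1 cells (2000/well) exposed to compound 16 h at 37 C; secreted IL-8 then detected by HTRF with cryptate- and XL665-labelled anti-IL-8 antibody pair after 1-3 h at room temperature.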

[11] = molecular target: Nuclear receptor ROR-gamma (Homo sapiens) (UniProt P51449); test: qHTS assay for small molecule antagonists of the retinoid-related orphan receptor gamma (ROR-gamma) signaling pathway (AID 651802); conditions: ROR-gamma antagonist cell reporter assay; series mostly up to 92.2 µM;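 note: luciferase reporter luminescence driven by ROR response element; % is set by controls: 0 for no effect and ±100 for the full control effect; nearly all actives have a fitted effect of over 60% in size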
UniProt P51449, sequence (P51449 whole entry, looked up): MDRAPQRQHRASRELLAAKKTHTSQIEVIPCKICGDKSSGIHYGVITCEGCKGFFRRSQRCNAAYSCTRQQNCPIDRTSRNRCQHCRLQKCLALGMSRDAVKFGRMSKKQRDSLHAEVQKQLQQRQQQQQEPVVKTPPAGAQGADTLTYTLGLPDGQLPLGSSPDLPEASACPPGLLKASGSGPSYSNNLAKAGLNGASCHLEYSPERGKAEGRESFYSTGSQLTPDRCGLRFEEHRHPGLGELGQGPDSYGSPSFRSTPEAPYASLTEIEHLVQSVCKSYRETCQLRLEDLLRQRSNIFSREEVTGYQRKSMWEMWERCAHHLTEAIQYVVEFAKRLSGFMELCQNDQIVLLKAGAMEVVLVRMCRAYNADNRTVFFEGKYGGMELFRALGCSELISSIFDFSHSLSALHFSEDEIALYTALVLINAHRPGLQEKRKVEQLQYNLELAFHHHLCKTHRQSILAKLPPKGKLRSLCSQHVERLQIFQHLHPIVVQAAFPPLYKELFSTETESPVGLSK
In short: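 CHO cells with TET-inducible ROR-gamma and RORE-luciferase reporter, dosed then doxycycline-induced. After 16 h at 37C, One-Glo luminescence read; decreased signal indicates antagonism.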

[12] = qHTS assay for small molecule antagonists of the retinoid-related orphan receptor gamma (ROR-gamma) signaling pathway - cell viability counter screen (AID 720652; active = well fitted curve in the direction sought with a large enough effect in the repeat runs; inconclusive = weak or mixed curves; inactive = no such curve, though single readings can be large; an effect the other way counts as inactive or inconclusive;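 note: compound exposure lasted 16 hr before ATP read; % is set by controls: 0 for no effect and ±100 for the full control effect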); conditions: RORgamma reporter cell line viability counter screen; series mostly up to 92.2 µM
In short: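 CHO cells carrying TET-inducible ROR and RORE-luciferase reporter, plated 5 hr, then dosed with compound plus doxycycline. After 16 hr at 37 C, viability read as intracellular ATP by CellTiter-Glo luminescence.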

[13] = Cell Viability - Jurkat (AID 426;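 active = dose-dependent loss of cell ATP signal giving a full or clear fitted curve, ranked by lower potency value; inconclusive = weak partial curve or response only at the top dose; inactive = no loss of viability signal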;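 note: potency is the fitted concentration of half-maximal effect; cells exposed to compound for 40 hours at 37 °C before ATP read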); conditions: qHTS
In short: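 Jurkat (Clone E6-1) cells, 5000/well in complete medium, exposed to compounds for 40 hr at 37C; intracellular ATP measured by CellTiter-Glo luminescence after 20 min at room temperature. AC50 from Hill fits.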

[14] = molecular target: Mitogen-activated protein kinase 10 (Mus musculus) (UniProt Q61831); test: JNK3 AlphaScreen Assay (AID 530; active = well fitted curve in either direction with a large enough effect, not every such curve was filed as active; inconclusive = small, poorly fitted or top-dose-only effect, or another doubt;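 note: kinase came from lysate of stimulated human HepG2 cells; signal reports phosphorylation of biotinylated GST-cJun 1-79 at Ser73 with 10 µM ATP; % is set by controls: 0 for no effect and ±100 for the full control effect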); conditions: JNK3 lysate, c-Jun phosphorylation; activity change, negative = inhibition: at 57.1 µM (top of the series)
In short: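 Pre-activated (IL-1β/TNFα) JNK3 in HepG2 lysates phosphorylates biotin-GST-cJun(1-79), 10 uM ATP; anti-phospho-cJun(Ser73) AlphaScreen read at room temperature, pH 7.6 Tris buffer. Compounds pre-incubated 15 min as titrations.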

[15] = molecular target: Cytochrome P450 3A4 (Homo sapiens) (UniProt P08684); test: qHTS Assay for Inhibitors and Substrates of Cytochrome P450 3A4 (AID 884); conditions: recombinant CYP3A4, Luciferin-PPXE luminescence; series mostly up to 57.1 µM; note: % is set by controls: 0 for no effect and ±100 for the full control effect; nearly all actives have a fitted effect of over 50% in size
UniProt P08684, sequence (P08684 whole entry, looked up): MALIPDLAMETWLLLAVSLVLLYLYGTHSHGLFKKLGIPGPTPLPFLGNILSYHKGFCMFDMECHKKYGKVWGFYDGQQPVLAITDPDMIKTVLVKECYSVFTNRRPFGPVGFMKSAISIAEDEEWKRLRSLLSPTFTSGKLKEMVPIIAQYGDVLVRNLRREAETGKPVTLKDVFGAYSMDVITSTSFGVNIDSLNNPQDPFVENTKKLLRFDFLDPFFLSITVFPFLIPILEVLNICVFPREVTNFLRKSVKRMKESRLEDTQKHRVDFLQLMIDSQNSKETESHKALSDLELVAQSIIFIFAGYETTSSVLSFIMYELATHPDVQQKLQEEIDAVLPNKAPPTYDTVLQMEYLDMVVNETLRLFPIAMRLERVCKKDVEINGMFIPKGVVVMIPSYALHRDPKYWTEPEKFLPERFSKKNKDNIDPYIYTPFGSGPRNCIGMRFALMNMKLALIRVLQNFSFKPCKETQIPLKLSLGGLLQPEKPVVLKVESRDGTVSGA
In short: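 20 nM human CYP3A4 with 25 uM Luciferin-PPXE (at KM) in 200 mM KPO4, preincubated 10 min with compound; NADPH regeneration started a 60 min RT reaction. Luciferin detected by luminescence, normalized to 57 uM ketoconazole as full inhibition.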

[16] = MultiTox-Fluor Cytotoxicity Assay - LYMP1-001 - Live Cells (AID 947); conditions: LYMP1-001 lymphoblastoid cells, live-cell protease fluorescence viability; series mostly up to 92.2 µM;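 note: 0% = DMSO only and full inhibition = tetraoctylammonium bromide control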
[17] = Cell Viability - LYMP2-005 (AID 967); conditions: LYMP2-005 lymphoblastoid cell viability; series mostly up to 92.2 µM;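 note: plate controls were DMSO only for no effect and 92 µM tetraoctylammonium bromide control for full effect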
In short: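 LYMP2-005 human lymphoblastoid cells (2500/well) were treated with compounds for 24 h at 37 C. Intracellular ATP was then measured by CellTiter-Glo luminescence after 30 min at room temperature. AC50 values came from Hill-equation fits of qHTS concentration-response data.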

[18] = Cell Viability - LYMP2-015 (AID 971); conditions: LYMP2-015 lymphoblastoid cell viability; series mostly up to 92.2 µM;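 note: 0% = DMSO only and full effect = 92 µM tetraoctylammonium bromide; nearly all actives have a fitted effect of over 55% in size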
In short: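 LYMP2-015 human lymphoblastoid cells (2500/well) in complete medium, compound-treated 24 h at 37 C; viability read as cellular ATP by CellTiter-Glo luminescence after 30 min at room temperature. AC50 from Hill-equation fits of qHTS concentration-response data.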

[19] = Cell Viability - LYMP2-024 (AID 988); conditions: LYMP2-024 lymphoblastoid cell viability; activity change, negative = cytotoxicity: at 92.2 µM (top of the series);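 note: plate controls were DMSO only for no effect and 92 µM tetraoctylammonium bromide for full effect; nearly all actives have a fitted effect of over 60% in size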
In short: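 Human lymphoblastoid LYMP2-024 cells (2500/well) rested 5 hr, then treated with compound for 24 hr at 37 C in complete medium. Viability was measured as intracellular ATP by CellTiter-Glo luminescence. AC50 values came from Hill-equation fits.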

[20] = molecular target: Glucocorticoid receptor (Homo sapiens) (UniProt P04150); test: qHTS assay for small molecule antagonists of glucocorticoid receptor signaling (AID 588533; active = well fitted inhibition curve with a large enough effect in the signal ratio, with a control signal flat, not every such curve was filed as active; inconclusive = small, poorly fitted or top-dose-only effect, or effect the other way, or a change in a side signal; the % refers to the signal ratio;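 note: cells stimulated with 2 nM dexamethasone as agonist; % is set by controls: 0 for no effect and ±100 for the full control effect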); conditions: HeLa MMTV-bla, GRE beta-lactamase ratio, antagonist mode, 18 h; activity change, negative = inhibition: at 76.8 µM (top of the series)
[21] = molecular target: Vitamin D3 receptor (Homo sapiens) (UniProt P11473); test: qHTS assay for small molecule agonists of vitamin D receptor signaling (AID 588543; calls by dose curve;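 note: 0% = DMSO basal and 100% = reference agonist control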); conditions: HEK293T VDR-UAS-bla, beta-lactamase ratio, 16 h; activation: at 76.8 µM (top of the series)
In short: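 Agonist-mode beta-lactamase reporter: HEK293T VDR-UAS-bla cells in charcoal-stripped 2% FBS, compound series 16 h 37 C, CCF4 2 h RT. EC50 from Hill fit, scaled against DMSO and 50 nM calcitriol control.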

[22] = qHTS assay for small molecule agonists of the antioxidant response element (ARE) signaling pathway (AID 651741; active = well fitted activation curve with a large enough effect in the signal ratio; inconclusive = small, poorly fitted or top-dose-only effect, or effect the other way, or a change in a side signal; the % refers to the signal ratio; note: % of control where 0% means no effect); conditions: HepG2 ARE-bla reporter, beta-lactamase FRET ratio, 16 h; activation: at 96 µM (top of the series) unless noted
In short: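 CellSensor ARE-bla HepG2 cells (2,000/well) carrying ARE-driven beta-lactamase, exposed 16 h at 37 C. LiveBLAzer B/G FRET substrate added for 2 h at room temperature; fluorescence intensity read.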
Tags give direction and shape of the fitted curve.

CC(O)CC(C)O (stereo not given)
inconclusive: Potency [3] 0.158 µM [cytotoxic, partial curve] | activation [9] -19.8% | activation [10] 28.4%
inactive: Potency [1] > 92 µM | Potency [2] | Potency [4] | Potency [5] | Potency [6] | activation [7] -1.48% | Potency [8] | Potency [11] | Potency [12]

CC12CCC(CC1=O)C2(C)C (stereo not given)
inactive: Potency [13] > 92 µM | Potency [14] | Potency [15] | Potency [2] | Potency [16] | Potency [17] | Potency [18] | Potency [19] | Potency [21] | Potency [22]
inconclusive: Potency [3] 3.16 µM [cytotoxic, full curve, poor fit] | activity change, negative = inhibition [20] -0.176% | activation [10] 12.8%
